The list shows a part of the results. At the low end of the ranking the order means little.
molecular target: SIX1-Q177R homeodomain (UniProt Q15475); experiment: universal protein binding microarray; details: Universal all-10-mer PBM (8x60K, AMADID 030236), 300 nM GST-tagged protein, Alexa Fluor 488 anti-GST; buffer, salt, pH and temperature not stated; high values mean tight binding; most listed sequences are background and not binding sites; double strand, one strand shown

Row | Sequence | binding signal [E-score]
1 | CAGTAACA | 0.107
2 | ATAGGACC | 0.0508
3 | GCGTCAGA | 0.0786
4 | ACAGAGCT | -0.276
5 | CCCCTGCC | 0.147
6 | CTGGAACA | 0.0678
7 | TCTAGCCA | -0.0318
8 | GATGAAAC | -0.00426
9 | GAACCAAA | -0.15
10 | CAGAAAAG | -0.2
11 | AGCGGTCG | -0.0292
12 | CGTTAGTA | -0.0206
13 | AGCAGGGA | -0.0847
14 | GATTAGCA | -0.134
15 | ACTGGCCT | -0.0829
16 | AATGAGGA | -0.173
17 | AATAACTG | -0.0154
18 | ACATTAGC | -0.204
19 | CACTAGTA | 0.116
20 | CGCAATTC | -0.0897
21 | AGATGGCA | -0.093
22 | AAACACAT | 0.124
23 | CAGTCAAA | -0.206
24 | AGTAACAT | -0.113
25 | ATGGCTAC | 0.02

Row | Sequence | binding signal [E-score]
26 | GACGGCCA | -0.171
27 | CTAAGCGC | -0.115
28 | ATAGAGCA | -0.158
29 | CCTGCTTA | 0.0949
30 | CAGTGCCA | 0.00739
31 | ATCAGCAT | -0.21
32 | CGCGCCCC | 0.0252
33 | ACGTGTGA | 0.293
34 | CTCCTCTC | -0.0811
35 | ACCTACTC | 0.0711
36 | GACCTTAA | -0.155
37 | GGCTTTCA | -0.134
38 | AATTCTCA | -0.136
39 | GCCTAACA | 0.101
40 | CGTACAAG | -0.101
41 | CTAGATTC | -0.162
42 | CTTCTACA | 0.161
43 | AGGGCGGA | -0.168
44 | CTTTGTCC | -0.117
45 | CGCGCTAG | 0.0356
46 | TATAACCA | -0.0751
47 | CATGTCTC | -0.097
48 | CAATCATC | -0.195
49 | ACTATAAG | 0.0555
50 | GAGTTCGC | 0.0321

Row | Sequence | binding signal [E-score]
51 | GGTGAGAC | -0.0183
52 | GACAGGGA | -0.132
53 | TGGCTAAA | -0.179
54 | GGAGTAAA | 0.222
55 | GGAACGGA | -0.172
56 | AAGTTAGC | -0.225
57 | ACGATTTA | -0.0812
58 | AGTTTCCC | -0.0788
59 | GCCCCTTA | -0.00974
60 | TCCTGAGA | -0.213
61 | AAACTACC | -0.0394
62 | AATAATTA | -0.0787
63 | CTAGGTAC | 0.0616
64 | TAGGAAGA | -0.141
65 | ATCTTTAC | 0.0524
66 | AGAAACGC | -0.0464
67 | CACACTAC | 0.297
68 | AAGAAGGT | 0.18
69 | GGGTAGCA | 0.113
70 | AGTACGTG | 0.0713
71 | GGAGACCA | -0.106
72 | ATTTAAAG | -0.175
73 | ATCACCGG | 0.0516
74 | ACACTAAG | 0.337
75 | CAAATCGA | -0.21

Row | Sequence | binding signal [E-score]
76 | CGGTACGA | 0.0387
77 | ACTCCAAT | 0.0604
78 | GATGTACA | 0.14
79 | AAGCGATG | -0.373
80 | ATCTCTAA | -0.158
81 | GAACAAGA | 0.0214
82 | CACTCATG | 0.244
83 | ATCCAAGG | -0.113
84 | ACCAGTAG | 0.0521
85 | AAGATTCG | -0.108
86 | ATGTGAAA | -0.211
87 | ACTGCTCC | 0.0303
88 | AGAAATCG | -0.357
89 | AGAAGTTG | -0.277
90 | AGCGCAGA | 0.0112
91 | ACTCATAA | -0.115
92 | AAACCGCG | -0.0493
93 | AGCAGGGG | 0.0202
94 | AGGTTTGA | -0.137
95 | GGGATCGA | 0.257
96 | AAGAGGTG | 0.368
97 | AACGACGG | 0.0401
98 | AAACCTCT | -0.00611
99 | TCTCGAGA | 0.00777
100 | CCGCGACA | 0.241

Row | Sequence | binding signal [E-score]
101 | CGACGCCC | 0.147
102 | GACAAATC | -0.248
103 | CAAGGTTC | -0.00231
104 | CGCGGGCA | 0.276
105 | AAGAGCCC | -0.295
106 | CCTTACCG | -0.0755
107 | CACCGATG | 0.32
108 | ACCCATGC | 0.0227
109 | GATCGTAC | -0.0272
110 | CATTAATC | -0.0681
111 | ACTGTCGC | -0.123
112 | CGACCCCC | 0.256
113 | TGCTTCCA | -0.0762
114 | AGCTCAAG | -0.213
115 | CGAACAAC | 0.0166
116 | CTGAACTA | -0.0392
117 | TTCAAAAA | -0.0897
118 | ACCCTCGG | 0.2
119 | CGTCATGA | 0.0519
120 | ATTCCTCC | -0.0788
121 | GAGTTGGA | -0.2
122 | CGTGCGAC | 0.13
123 | CGGTCTAC | -0.0459
124 | AAGGACAT | -0.0586
125 | GGCTGTAA | -0.15

Row | Sequence | binding signal [E-score]
126 | GTAAGAGA | -0.118
127 | CCCTGCGG | 0.122
128 | ACGGCTAG | -0.0855
129 | GAGTATAC | 0.157
130 | CGGAGAGA | -0.0416
131 | CCCAACGG | 0.00412
132 | CTGCCTTC | -0.319
133 | AGTCGAAT | -0.128
134 | AACTATCA | -0.187
135 | ACAAGGTC | 0.218
136 | GATAGCAC | 0.0149
137 | CTCCTTTA | -0.0813
138 | GACTAACA | 0.024
139 | GAGTCCAC | 0.135
140 | ATTTGGCA | -0.2
141 | AATCCACA | 0.155
142 | AAACTGGT | 0.203
143 | AATCCGAC | -0.0596
144 | ACCGTTGG | 0.216
145 | GTGGTAAC | -0.0465
146 | AGAAGCCT | -0.0357
147 | AGCGCAAG | -0.186
148 | AGTAATAC | -0.0229
149 | GATTTTTA | -0.161
150 | CACTCTGC | 0.187

Row | Sequence | binding signal [E-score]
151 | ACCCATAG | 0.109
152 | CAGTGCGG | -0.0162
153 | TAATGACA | 0.203
154 | CGTCCGAG | -0.0482
155 | ACCGTTAG | -0.128
156 | AAATCAAA | -0.105
157 | AGACATAG | -0.247
158 | ATCCGGTA | 0.00298
159 | CCCTGGTA | 0.114
160 | CATATTTA | 0.00251
161 | CTTATATC | -0.15
162 | CATTTGAA | -0.142
163 | CCGCTTAC | 0.0928
164 | CACACCCC | 0.402
165 | ATGCAACC | 0.0134
166 | GAGGCTGA | -0.0996
167 | ATATCTGC | -0.0401
168 | ACATCTAC | -0.11
169 | CTTAGATC | 0.0643
170 | GGGGTACA | 0.329
171 | GCTGTATA | -0.0632
172 | ACCCAGCC | 0.0719

From article PMC10668032
